# Measured values taken from PubChem BioAssay AID651820 (National Center for Advancing Translational Sciences (NCATS), 2012).
# In all, about 340,000 compounds went through this assay and about 12,000 (3.5%) were called active. This list was built around the results that the source calls inconclusive (neither active nor inactive); the mix of calls is not that of the screen. Calls come from the whole dose curve; as a rule, active = well fitted inhibition curve with a large enough effect; inconclusive = small, poorly fitted or top-dose-only effect, or another doubt; inactive = no such curve, though single readings can be large or run the other way. Potencies of inconclusive entries are left out as doubtful fits.
# Test: qHTS Assay for Inhibitors of Hepatitis C Virus (HCV)
# Conditions: Huh7.5.1 HCVcc-Cre (HCVcc is cell-culture hepatitis C virus) infection, luciferase reporter, 44 h; activity change, negative = inhibition: at 41.8 µM (top of the series) unless noted
# Outline: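 HCVcc-Cre virus at an moi near 0.5 was added right after compound to cells cultured 4 h from seeding (1,000 cells/well). Luciferase activity was determined 44 h later, 15 min after substrate addition at RT.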
# % is set by controls: 0 for no effect and ±100 for the full control effect; potency is the fitted concentration of half-maximal effect; tags give direction and shape of the fitted curve.
Compound,Potency,"activity change, negative = inhibition"
COc1cc(NC(=O)c2ccc(C)cc2C)ccc1NC(=O)c1cccs1,"inconclusive [inhibitor, full curve]",–
COc1cccc(-c2cc(C(=O)Nc3c(C)nn(Cc4ccccc4C)c3C)no2)c1,"inconclusive [inhibitor, single point]",–
Cc1noc(C)c1COc1ccccc1C(=O)N1CCN(S(=O)(=O)c2ccccc2F)CC1,inactive,–
CC(C)C(C)NC(=O)COn1nnc2ccc(S(=O)(=O)N3CCOCC3)cc21 (stereo unspecified),inactive,–
CCOC(=O)c1c(CSC(=N)N)n(-c2ccc(Br)cc2)c2cc(Br)c(OC(C)=O)cc12,"inconclusive [inhibitor, full curve, poor fit]",inactive: -0.148% [at 0.335 µM]
Cc1cc(C(=O)NCCCN2CCN(c3cc(Cl)ccc3C)CC2)n(-c2ccccc2)n1,"inconclusive [inhibitor, single point]",–
COc1ccc(-c2csc(NC(=S)NC(=O)/C=C/c3ccc(C(C)C)cc3)n2)cc1OC,"inconclusive [inhibitor, partial curve]",–
CCCCn1c(N)c(N(CCOC)C(=O)C2CCN(S(=O)(=O)c3ccc(C)c(C)c3)CC2)c(=O)[nH]c1=O,"inconclusive [inhibitor, partial curve]",–
CCOC(=O)c1c(N)sc2c1CCC1C(=O)N(C3CCCCC3)C(=O)C21 (stereo unspecified),"inconclusive [inhibitor, full curve, poor fit]",–
COc1ccccc1NC(=O)Nc1ccnn1C1CCN(C(=O)c2cscn2)CC1,"inconclusive [inhibitor, single point]",–
NC1=NC[C@@H](CC2CCCCC2)N1CCc1cc(C(F)(F)F)cc(C(F)(F)F)c1,"inconclusive [inhibitor, single point]",–
CCOC(=O)c1ccc(NC(=S)N2CCC(O)CC2)cc1,inactive,–
COc1ccc(/C=C/C(=O)NC(=S)Nc2ccc(C(=O)O)cc2)cc1,inactive,–
O=C(NCC(c1ccco1)N1CCN(c2ccccc2F)CC1)C1CCCCC1 (stereo unspecified),"inconclusive [inhibitor, full curve, poor fit]",–
Cn1c(=O)c([N+](=O)[O-])c(-n2cnc3ccccc32)c2ccccc21,"inconclusive [inhibitor, partial curve]",–
Cc1nc([N+](=O)[O-])cn1CC(=O)c1ccc(F)cc1,inactive,–
CCCn1ncc([C@@H]2C[C@H]3CN(Cc4cccc(Cl)c4)C(=O)[C@]34CCCN24)c1C,"inconclusive [inhibitor, single point]",–
O=C(c1ccc(-c2cccc(Cl)c2Cl)o1)N1CCOCC1,inactive,–
CCCCOc1ccc(C(=O)Nc2ccc(SC(F)F)cc2)cc1OC,"inconclusive [inhibitor, full curve]",–
O=C(Nc1nc2ccccc2[nH]1)Nc1ccccc1F,inactive,–
O=C(CCl)Nc1ccc(S(=O)(=O)NC2=NCCCCC2)cc1,"inconclusive [inhibitor, partial curve]",–
COc1ccccc1CN1CCN(Cc2ccc(Cl)cc2)CC1,inactive,–
Cc1nnc(NC(=O)CSc2nnc(Cc3cccn3C)n2C)s1,inactive,–

Compound,Potency,"activity change, negative = inhibition"
O=C(Nc1ccc(Cl)cn1)c1cc2c(s1)-c1ccccc1OC2,"inconclusive [inhibitor, partial curve]",–
Cc1csc(NC(=O)NC2(C(F)(F)F)Oc3ccccc3O2)n1,"inconclusive [inhibitor, single point]",–
Cc1ccc(CCC(=O)Nc2cc(Cl)ccc2Cl)o1,inactive,–
Nc1cnc(CNc2ccccc2Cl)cn1,"inconclusive [inhibitor, single point]",–
O=C(NCc1ccco1)c1csc(Nc2ccccc2Cl)n1,"inconclusive [inhibitor, partial curve]",–
COc1ccc(N(C)S(=O)(=O)c2cccc(C(=O)Nc3nc4ccccc4[nH]3)c2)cc1,"inconclusive [inhibitor, single point]",–
CC(C)CCNc1nc2c(c(=O)n(Cc3cccc(F)c3)c(=O)n2C)n1C,"inconclusive [inhibitor, single point]",–
CCCCC(=O)Nc1ccc(N2CCN(C(=O)c3ccco3)CC2)cc1,inactive,–
COC(CNC(=O)c1ccc2c(c1)ncn2C1CCCCCC1)OC,inactive,–
CC1(C)Cc2c(c(-c3ccco3)nc3sc4c(NCCO)ncnc4c23)CO1,active: 12.6 µM,–
ClCCN(CCCl)c1ccc(C2=NCCc3ccccc32)cc1,"inconclusive [inhibitor, partial curve]",–
O=C(c1nn(Cc2ccccc2)c(=O)c2ccccc12)N1CCN(c2ccccn2)CC1,"inconclusive [inhibitor, full curve]",–
CC1CCN(C(=O)c2ccc([N+](=O)[O-])o2)CC1,"inconclusive [inhibitor, single point]",–
O=C(NCc1cccnc1)C(=O)NCC(c1ccco1)N1CCN(c2ccc(F)cc2)CC1 (stereo unspecified),"inconclusive [inhibitor, single point]",–
CCOC(=O)C1CCCN(C(=O)c2ccccc2NC(=O)C2=C(C)OCCS2)C1 (stereo unspecified),inactive,–
CCOC(=O)/C=C/c1cnn(-c2ccccc2)c1,inactive,–
O=[N+]([O-])c1ccc(COc2ccc(CN3CCCC3)cc2)cc1,"inconclusive [inhibitor, single point]",–
CCn1c2ccccc2c2cc(NC(=O)COc3ccccc3OC)ccc21,"inconclusive [inhibitor, full curve]",–
CCN(CCO)C(=O)c1ccc2nc(Cc3cccc(Cl)c3)oc2c1,inactive,–
Cc1cccc(-n2nc(C(=O)c3ccco3)cc(-c3nc4ccccc4[nH]3)c2=N)c1,"inconclusive [inhibitor, partial curve]",–
CC(C)c1ccc(NC(=O)NC2CCCCC2)cc1,"inconclusive [inhibitor, single point]",–
COc1ccccc1C(=O)Nc1ccc2c(C)cc(=O)oc2c1,inactive,–
